{"source": "the supplement of paper PMC10300432", "binders": {"B1": {"name": "C5151 (protein)", "chain 1": "QVQLQESGPGLVKPSETLSLICTVSGNSLSSYYWSWIRQSPGKGLEWIGHIDYSRSTNYNPSLKSRATISVDTSKNQVSLKLRSVTAADTAMYYCATRIAADAWTWFDPWGQGTLVTVSS", "chain 2": "SYELTQPPSVSVAPGKTARVICGGNNIGNENVHWYQQKSGQAPVLVVYDNSNRPSGIPERFSGSNSGNTATLTISRVEAGDEADYYCQLWDRVSDHPVFGPGTMVTV"}, "B2": {"name": "C5141 (protein)", "chain 1": "QLQLQESGPGLVKPSETLSLTCTVSGASINSDNYFWGWIRQPPGKGLEWIASIYYSGRTSYYNPSLKSRVTINVDTSKNQVSLKLSSLIAADTAVYYCARATWLRGGFDPWGQGTLVTVS", "chain 2": "NFMLTQPQSVSESPGKTVTISCTGSSGSIASNYVHWYQQRPGSAPTIVIYEDTQRPSGVPDRFSGSIDSSSNSASLTISGLKTEDEADYYCQSYDVTNHYVFGPGTKVTVL"}, "B3": {"name": "C5142 (protein)", "chain 1": "EVQLVESGGGLVQPGGSLRLSCSASGFTFSSYAIHWVRQAPGRGLEYVSAISNDGGSTYNADSVRGRFTISRDNSKNTLYLQMRSLRAEDTAVYYCVKGTSSSYWGYFDYWGQGTLVTVSS", "chain 2": "SYELTQPPSVSVAPGKTARITCGGNNIGSKSVHWYQQKPGQAPVVVVYDDSDRPSGIPERFSGSNSGNTATLTISRVEAGDEADYYCQVWDSSVVFGGGTKLTVL"}, "B4": {"name": "C5143 (protein)", "chain 1": "QVQLVESGGGVVQPGRSLRLSCEASGFTFRTYAMHWVRLAPGKGLEWLAVISYDGEDTNYADSVKGRFTISRDNSKNTLHLQLNSLRREDTAVYYCAKTLGPYCSAGSCYSGTMDYWGQGALVTVSS", "chain 2": "DIQMTQSPSSLSASIGDSITITCQASHDISNHLNWYQQKPGKAPKLLINDASNLEAGVPSRFSGSGSGIDFTLSISSLQPEDIATYHCQQYDNLPWTFGQGTKVEI"}, "B5": {"name": "C5148 (protein)", "chain 1": "QVQLQESGPGQVKPSETLSLTCTVSGDSVSSGSYYWSWIRQPPGKGLEWIGYVYYSGSTNYNPSLKSRVSMSVDTSKNQFSLKLNSVTAADTAVYYCARDSIVVRSAAYPLYYGMGVWGHGTTVTVSS", "chain 2": "QSVLTQPPSASGTPGQRVTISCSGGSSNIGSNTVDWYQQLPGTAPKLLIYSNNQRSSGVPDRFSGSKSGTSASLAISGLQSEDEADYYCATWDHSLNVYYVFGTGTKVTVL"}, "B6": {"name": "C5155 (protein)", "chain 1": "EVQLVESGGGLVQPGGSLRLSCVASGFTFTDYDMHWVRQGPGQGLEWVSVIGTGGDTYYPDSVKGRFIISRDNAKNSFYLQMNSLRAGDTAVYYCARANYFGSSGYGDYHYGLDIWGQGTTVTV", "chain 2": "EIVMTQSPATLSVSPGERATLSCRASQIVRTNLAWYQQKPGQAPRLLIYGASTRAAGIPARFSGSGSGTEFTLTISSLQSEDFAIYYCQQYNIWPPLTFGGGTKVEIK"}, "B7": {"name": "C5161 (protein)", "chain 1": "QVQLVESGGGVVQPGRSLRLSCAASGLTFSHYGMHWVRQAPGKGLEWVAVISSDGSNQYYADSVRGRFTISRDNSKNTMNLQMNSLRREDTAVYYCAKGGFYDDTGYYGFDYWGQGALVTVS", "chain 2": "EIVMTQSPTTLSVSPGERVTLSCRASQGIGTNLAWYQQKPGQAPRLLIYDASTRATGIPDRFSASGSETEFTLTITSLQSENIAVYYCQQYNGWPYTFGQGTKLEIK"}, "B8": {"name": "C5149 (protein)", "chain 1": "QVQLVESGGGVVQPGTSLRLSCGASGFPFNNYDMHWVRQAPGKGLEWMAVISKDGNMKFYADSVKGRFTISRDNSKRALHLQMSSLRTEDTAVYYCVRDNGRLVPVFDLWGQGTLVTVS", "chain 2": "DIQMTQSPSSLSASVGDRVTITCRASQSIGGYLNWYQLKPGKAPKLLIYAASSLHTGVPSRFSGSGSGTDFTLTISSLQPEDFATYYCQQSYSTVSLTFGGGTKVEIK"}, "B9": {"name": "C5157 (protein)", "chain 1": "QVQLVESGGGVVQPGSSLRLSCAASGFSFSNYDMHWVRQAPGKGLEWVALISSDGNGKFYADSVKGRFTISRDNSKNTLNLQMNSLRPDDTAVYFCARDSPAHVIPLPLLDSWGQGTLVTVSS", "chain 2": "B8 chain 2 with G30I, G31N, L38Q, T56S, S93T, V95L, S96A"}, "B10": {"name": "C5147 (protein)", "chain 1": "QVQLQESGPGLVKPSETLSLTCNVSGASISDFYWSWIRQPPGKGLEWIGFIFYPGGTTYNPSLKSRVIMSVDTSKNQFSLNLTSVTAADTALYYCARQSTVTTYGGISFDPWGRGTLVTVSS", "chain 2": "SYELTQPPSVSVSPGQTASITCSGDKLGHNYASWYQQKPGQSPVLVLYLDYRRPSGIPERFSGSKSGNAATLTISGTQAMDEADYYCQTWGSNTVVFGGGTKLTV"}, "B11": {"name": "C5152 (protein)", "chain 1": "QVQLQESGPGLVKPSETLSLTCSVSGDSLSSYYWNWIRQPPGKGLEWIAYIDYGGITNYNPALKSRVTISVDTSKNQLSLKVNSVTAADTAMYYCAGRISADVFTWLDPWGQGTLVTVSS", "chain 2": "SYELTQPPSVSVAPGNTARISCGGNNIGSKSVHWYQQKPGQAPVLVVYDDRDRPPGIPERFSGSNSADTATLTINRVEAGDEADYSCQVWDSTSDHPVFGGGTKLTV"}, "B12": {"name": "C5153 (protein)", "chain 1": "QVQLQESGPGLVKSSETLSLTCSVSGGSLSSYRWNWIRQPPGKGPEWIGYISYSGGKNHNPSLKSRLTISVDTSKNQISLKLTSVTAADTAVYYCAAMIDAPRYNWFYPWGHGTLVTVSS", "chain 2": "SYELTQPPSVSVAPGKTARITCGGNNIRSKGVHWYQQKPGQAPVLVLYDDSDRPSGIPERFSGSNSGNTATLTISRVEDGDEAGYYCQVWENNSDHPIFGGGTKLTVL"}, "B13": {"name": "C5037 (protein)", "chain 1": "EVQLVESGGTLVQPGGSLRLSCGVSGFIVSANYMSWVRQAPGKGLEWLSVIFPDGHTYYGDSVKGRFTISRGDSENTLYLQMDSLRADDTAVYYCARDRRIGSPYHYYGMDFWGQGTTVTVSS", "chain 2": "QSVLTQPPSAAGTPGQRVTISCSGSTSNIGSNFVNWYQQFPGAAPKLLIYSNDKRPSGVPDRFSGSKSGTSASLAISGLQSDDEADYYCSTWDDSLNGNVVFGGGTKLTVL"}, "B14": {"name": "C5144 (protein)", "chain 1": "QVQLVESGGGVVQPGRSLRLSCAASGFTFSTYGMHWVRQAPGKGLEWMAVVSSDGRNEYYADSVKGRFTISRDNSNNTLYLQMSGLRAEDTAVYYCAKSKVLWFGQLQARDYYYYGLDVWGQGTTVTVSS", "chain 2": "AIRMTQSPSSLSASVGARVTITCRASQGISTSLAWYQQKPGKTPKLLIYDASNLESGAPSRFSGSGSGTDFTLTISSLQPEDFATYYCQQLINYPLTFGGGTKVEIK"}, "B15": {"name": "C5154 (protein)", "chain 1": "QVQLVQSGAEVKKPGSSVKVSCKASGRTFSTYTITWVRQAPGQGLEWVGRIIPILGITDYAQKFQGRVTITADKSTTTAYMELSSLRSEDTAVYYCARDLLPHHYDSGISKDAFDIWGQGTMVTVSS", "chain 2": "DIQMTQSPSSLSASVGDRVTITCRASQGISTYLNWYQQKPGNAPKLLIYAASSLQSGVPSRFSGSGSGTDFTLTISSLQPEDFATYYCQQSYSTPFTFGPGTKVDIK"}}, "note": "Substitutions are numbered along the chain they refer to. Recombinant human monoclonal antibodies (heavy:light variable regions). ELISA EC50 on the named antigen, from 10 µg/ml down; IC50 against spike pseudovirus on HT1080-ACE2 cells, 48 h; lower = stronger. Calls: IC50 above 1,000 ng/ml = non-neutralizing; EC50 above 1,000 ng/ml = non-binder."}
{"molecular_target": "SARS-CoV-2 Omicron BA.1 spike pseudovirus", "experiment": "pseudovirus neutralization IC50; higher = weaker neutralization", "experimental": "(§1)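 Single-round luciferase reporter pseudovirus mixed with antibody dilutions and put on HT1080-ACE2 clone 14 cells for 48 h; signal relative to no-antibody wells, four-parameter fit.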", "units": {"pseudovirus neutralization IC50": "µg/mL"}}
{"binder": "B1", "pseudovirus neutralization IC50": 0.00417}
{"binder": "B2", "pseudovirus neutralization IC50": "> 1"}
{"binder": "B3", "pseudovirus neutralization IC50": "> 1"}
{"binder": "B4", "pseudovirus neutralization IC50": "> 1"}
{"binder": "B5", "pseudovirus neutralization IC50": "> 1"}
{"binder": "B6", "pseudovirus neutralization IC50": "> 1"}
{"binder": "B7", "pseudovirus neutralization IC50": "> 1"}
{"binder": "B8", "pseudovirus neutralization IC50": 0.932}
{"binder": "B9", "pseudovirus neutralization IC50": "> 1"}
{"binder": "B10", "pseudovirus neutralization IC50": "> 1"}
{"binder": "B11", "pseudovirus neutralization IC50": 0.0119}
{"binder": "B12", "pseudovirus neutralization IC50": 0.118}
{"binder": "B13", "pseudovirus neutralization IC50": 0.141}
{"binder": "B14", "pseudovirus neutralization IC50": "> 1"}
{"binder": "B15", "pseudovirus neutralization IC50": 0.0202}
{"molecular_target": "SARS-CoV-2 Omicron BA.4/5 spike pseudovirus", "experiment": "pseudovirus neutralization IC50; higher = weaker neutralization", "experimental": "as §1", "units": {"pseudovirus neutralization IC50": "µg/mL"}}
{"binder": "B1", "pseudovirus neutralization IC50": 0.141}
{"binder": "B2", "pseudovirus neutralization IC50": "> 1"}
{"binder": "B3", "pseudovirus neutralization IC50": "> 1"}
{"binder": "B4", "pseudovirus neutralization IC50": "> 1"}
{"binder": "B5", "pseudovirus neutralization IC50": "> 1"}
{"binder": "B6", "pseudovirus neutralization IC50": "> 1"}
{"binder": "B7", "pseudovirus neutralization IC50": "> 1"}
{"binder": "B8", "pseudovirus neutralization IC50": "> 1"}
{"binder": "B9", "pseudovirus neutralization IC50": "> 1"}
{"binder": "B10", "pseudovirus neutralization IC50": 0.318}
{"binder": "B11", "pseudovirus neutralization IC50": "> 1"}
{"binder": "B12", "pseudovirus neutralization IC50": "> 1"}
{"binder": "B13", "pseudovirus neutralization IC50": "> 1"}
{"binder": "B14", "pseudovirus neutralization IC50": "> 1"}
{"binder": "B15", "pseudovirus neutralization IC50": "> 1"}
{"molecular_target": "SARS-CoV-2 Wuhan-Hu-1 spike pseudovirus", "experiment": "pseudovirus neutralization IC50; higher = weaker neutralization", "experimental": "as §1", "units": {"pseudovirus neutralization IC50": "µg/mL"}}
{"binder": "B1", "pseudovirus neutralization IC50": 0.00212}
{"binder": "B2", "pseudovirus neutralization IC50": 0.17}
{"binder": "B3", "pseudovirus neutralization IC50": 0.59}
{"binder": "B4", "pseudovirus neutralization IC50": "> 1"}
{"binder": "B5", "pseudovirus neutralization IC50": "> 1"}
{"binder": "B6", "pseudovirus neutralization IC50": 0.598}
{"binder": "B7", "pseudovirus neutralization IC50": 0.527}
{"binder": "B8", "pseudovirus neutralization IC50": 0.211}
{"binder": "B9", "pseudovirus neutralization IC50": 0.94}
{"binder": "B10", "pseudovirus neutralization IC50": 0.000701}
{"binder": "B11", "pseudovirus neutralization IC50": 0.00196}
{"binder": "B12", "pseudovirus neutralization IC50": 0.000853}
{"binder": "B13", "pseudovirus neutralization IC50": 0.00126}
{"binder": "B14", "pseudovirus neutralization IC50": 0.00207}
{"binder": "B15", "pseudovirus neutralization IC50": 0.00737}
{"molecular_target": "SARS-CoV-2 Wuhan-Hu-1 spike receptor-binding domain", "experiment": "ELISA binding EC50; higher = weaker binding; ELISA of recombinant human antibody on coated antigen, from 10 µg/ml in fourfold dilutions; four-parameter fit.", "units": {"ELISA binding EC50": "µg/mL"}}
{"binder": "B1", "ELISA binding EC50": 0.00391}
{"binder": "B2", "ELISA binding EC50": 0.00622}
{"binder": "B3", "ELISA binding EC50": 0.00507}
{"binder": "B4", "ELISA binding EC50": 0.0033}
{"binder": "B5", "ELISA binding EC50": 0.0127}
{"binder": "B6", "ELISA binding EC50": 0.00281}
{"binder": "B7", "ELISA binding EC50": 0.00639}
{"binder": "B8", "ELISA binding EC50": 0.00533}
{"binder": "B9", "ELISA binding EC50": 0.00669}
{"binder": "B10", "ELISA binding EC50": 0.00391}
{"binder": "B11", "ELISA binding EC50": 0.00367}
{"binder": "B12", "ELISA binding EC50": 0.0036}
{"binder": "B13", "ELISA binding EC50": 0.00225}
{"binder": "B14", "ELISA binding EC50": 0.0042}
{"binder": "B15", "ELISA binding EC50": 0.00611}
